# PubChem BioAssay AID686979 (National Center for Advancing Translational Sciences (NCATS), 2013)
# Out of some 420,000 compounds screened, about 50,000 (12%) were called active. Inconclusive results, whose numbers are uncertain, are shown with a selection of clear calls. The call rests on the fitted dose curve; in most records, active means well fitted inhibition curve with a large enough effect; inconclusive means small, poorly fitted or top-dose-only effect; inactive means flat fitted curve, though single readings scatter. No potency is given beside an inconclusive call; the fits are too rough.
# Test: qHTS for Inhibitors of human tyrosyl-DNA phosphodiesterase 1 (TDP1): qHTS in cells in presence of CPT; further: nearly all actives have a fitted effect of over 55% in size
# Conditions: chicken DT40 Tdp1-/-;hTDP1 cells + 20 nM CPT, ATP luminescence, 48 h; activity change, negative = growth inhibition: at 46.2 µM (top of the series) unless noted
# How it was run: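 Chicken DT40 Tdp1-/- cells complemented with human TDP1, 400 cells/well, exposed to compounds plus 20 nM camptothecin for at least 48 h at 37 C; viability read as ATP content by CellTiter-Glo luminescence.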
# On the % scale 0 is the no-effect control and ±100 the full control effect; potency means the concentration at half of the fitted maximal effect; tags describe the fitted curve by direction and shape.
Structure (SMILES),Potency,"activity change, negative = growth inhibition"
CCOC(=O)N1CCc2c(sc(NCc3ccc(OCC)cc3)c2C(=O)Nc2ccc(OC)cc2OC)C1,"inconclusive [inhibitor, partial curve]",–
CCCC(=O)N(CCN1CCOCC1)c1nc2c(OC)ccc(C)c2s1,"inconclusive [inhibitor, partial curve]",–
COc1ccc(N2CCN(C(=O)C34CCC(C)(C(=O)C3)C4(C)C)CC2)cc1 (centres undefined),"inconclusive [inhibitor, single point]",–
CCn1cc(C(=O)O)c(=O)c2cc(F)c(N3CCNCC3)nc21,"inconclusive [inhibitor, single point]",–
Clc1ccc(-c2noc3ncnc(NCCCN4CCN(c5ccccc5)CC4)c23)cc1,"inconclusive [inhibitor, single point]",–
COc1ccc(C(CC(=O)O)NC(=O)c2ccccc2[N+](=O)[O-])cc1 (centres undefined),inactive,–
CCCOc1ccc(-c2cc3onc(-c4ccccc4)c3c(=O)n2C)cc1,active: 25.9 µM,–
Cc1cc(NC(=O)CSc2nc3c([nH]c4ccccc43)c(=O)n2-c2cccc(Cl)c2)no1,–,inconclusive: -35.2% [inhibitor]
CC1CN(c2nn3c(=O)c4ccccc4nc3c3ccccc23)CC(C)O1 (centres undefined),active: 8.2 µM,–
COc1ccccc1C(=O)NCc1ccc2c(c1)CCN2C(=O)c1ccncc1,"inconclusive [inhibitor, single point]",–
COCCCNc1nnc(Cc2ccc(Cl)cc2)c(=O)[nH]1,active: 0.411 µM,–
NS(=O)(=O)c1ccc(CCNS(=O)(=O)c2cccc3nsnc23)cc1,inactive,–
Cn1c(=O)c2c(nc(N/N=C/c3ccncc3)n2Cc2ccccc2)n(C)c1=O,"inconclusive [inhibitor, single point]",–
C/C(=N\NC(N)=O)c1ccc(Cl)cc1,inactive,–
CCOC(=O)C1CCCN(C(=O)C2CCN(c3nnc(C)c4c(C)n(-c5ccccc5)nc34)CC2)C1 (centres undefined),"inconclusive [inhibitor, single point]",–
N#Cc1ccccc1OCC(=O)N1CCN(C(=O)c2ccco2)CC1,inactive,–
C=CC[C@H](CC(=O)N(CCO)Cc1ccccc1)C(=O)N[C@H](C)COC(=O)[C@@H](CC=C)CC(=O)OC(C)(C)C,"inconclusive [inhibitor, single point]",–
COC(=O)c1ccc(CNC(=O)c2sccc2-c2ccccc2)cc1,"inconclusive [inhibitor, single point]",–
CN(c1ccccc1)S(=O)(=O)c1cccc(NC(=O)c2ccc3ncsc3c2)c1,active: 10.3 µM,–
